Experimental data taken from PubChem BioAssay AID686978 (National Center for Advancing Translational Sciences (NCATS), 2013).
About 64,000 (15%) of roughly 420,000 compounds were called active. The shares of active, inactive and inconclusive entries below differ from those in the screen. Calls follow the shape of the dose curve; as a rule, active = well fitted inhibition curve with a large enough effect; inconclusive = small, poorly fitted or top-dose-only effect; inactive = flat fitted curve, though single readings scatter. Potencies of inconclusive entries are left out as doubtful fits.

experiment: qHTS for Inhibitors of human tyrosyl-DNA phosphodiesterase 1 (TDP1): qHTS in cells in absence of CPT; conditions: DT40 Tdp1-/- hTDP1 cells, no CPT, ATP luminescence, 48 h; activity change, negative = growth inhibition: at 46.2 µM (top of the series) unless noted; also: nearly all actives have a fitted effect of over 55% in size
Outline: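 No-CPT arm: Tdp1-/-;hTDP1 DT40 cells (400/well) plus compounds, incubated ≥48 hr at 37 °C. Readout CellTiter-Glo luminescence.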
% is scaled to controls: 0 for no effect and ±100 for the full control effect; potency is read from the fitted curve at half-maximal effect; tags tell the direction and shape of the fitted curve.

| SMILES | Potency | activity change, negative = growth inhibition |
| --- | --- | --- |
| CCOC(=O)C1Nc2ccc(C(F)(F)F)cc2C2c3ccccc3CC12 (configuration not stated) | active: 16.4 µM |  |
| O=C(CN1CCOCC1)NCCC12CC3CC(CC(C3)C1)C2 | inconclusive [inhibitor, partial curve, poor fit] |  |
| Cc1onc(-c2ccccc2)c1C(=O)n1nnc2ccccc21 | inconclusive [inhibitor, single point] |  |
| COc1ccc(CC(=O)Nc2sccc2C#N)cc1S(=O)(=O)N1CCOCC1 |  | inactive: -23.9% |
| CCCCCCOc1ccc(C2C(=O)N(C3CCCCC3)CC(=O)N2C2CCCCC2)cc1 (configuration not stated) |  | inactive: -1.52% |
| COc1ccc(C(=O)N2CCN(c3ccc(NC(=O)Cc4ccccc4)cc3)CC2)cc1 | inconclusive [inhibitor, single point] |  |
| CC(NC(=O)CSc1nc(C2CC2)n(-c2ccccc2)n1)c1ccco1 (configuration not stated) | inconclusive [inhibitor, single point] |  |
| COc1ccc2c(=O)c3c(=O)n(Cc4ccco4)c(-c4ccco4)nc3oc2c1 | inconclusive [inhibitor, single point] |  |
| Cn1c(N)c(C(=O)COC(=O)/C=C/c2cccc(Br)c2)c(=O)n(C)c1=O | inconclusive [inhibitor, single point] |  |
| Cc1ccc2ccccc2n1 |  | inactive: 5.18% |
| COc1cc(=O)n2c(c1C(=O)N(C)Cc1nonc1C)CCN(C(=O)c1ccc(C)c(C)c1)CC2 |  | inactive: 0.41% |
| CCc1n[nH]c(=S)n1/N=C/C(C)=C\c1ccccc1 |  | inactive: -22.5% |
| O=Nc1c(O)[nH]c2ccc(Cl)c(Cl)c12 | inconclusive [inhibitor, partial curve] |  |
| Cc1ccc(S(=O)(=O)/N=C(\Sc2ccccc2)c2ccccc2)cc1 | active: 6.51 µM |  |
| N#CCCN(C(=S)NC(=O)c1ccco1)c1ccccc1F | inconclusive [inhibitor, single point] |  |
| CC(C)CC1OC(C)Cc2[nH][nH]c(=O)c21 (configuration not stated) |  | inactive: 1.52% |
| O=C1CSC(=NC2CCCCC2)N1 | active: 18.4 µM |  |
| Cc1ccc(SCc2nc3ccccc3n2CC(=O)Nc2c(C)cccc2C)cc1 | inconclusive [inhibitor, single point] |  |
| Cc1cc(C)c2c(N)c(C(=O)NCc3ccco3)sc2n1 | inconclusive [inhibitor, single point] |  |
| CCC(=O)N1CCc2cc(S(=O)(=O)NCCC(=O)Nc3ccc(N(CC)CC)cc3C)ccc21 | active: 23.1 µM |  |
| CC1CCN(Cc2nc(-c3ccccc3)no2)CC1 |  | inconclusive: -34.8% [inhibitor] |
| CC(C)(C)c1ccc(CNc2ccc([N+](=O)[O-])cn2)cc1 | active: 23.1 µM |  |
| CCN1C(=O)C(CC(=O)Nc2ccc(OC)cc2)N(Cc2ccc(OC)c(OC)c2)C1=S (configuration not stated) | inconclusive [inhibitor, single point] |  |
| COc1cccc(NC(=O)N(C)C[C@@H]2OCc3cn(nn3)CCCC(=O)N([C@H](C)CO)C[C@H]2C)c1 |  | inactive: 17.5% |

| SMILES | Potency | activity change, negative = growth inhibition |
| --- | --- | --- |
| CN(Cc1ccccc1F)C(=O)C1CCCN(C(=O)c2ccc(Cl)cc2)C1 (configuration not stated) | inconclusive [inhibitor, partial curve] |  |
| O=C(Cn1cc(C(=O)C2CC2)c2ccccc21)NCc1ccc2c(c1)OCO2 | inconclusive [inhibitor, single point] |  |
| Cc1cc2cc3c(cc2nc1SCC(=O)N1c2ccccc2CC1C)OCO3 (configuration not stated) | active: 20.6 µM |  |
| CN1/C(=C\C(=O)c2cncc(Br)c2)C(C)(C)c2ccccc21 | active: 2.59 µM |  |
| COc1cc(C(=O)Nc2ccncc2)c([N+](=O)[O-])cc1OC |  | inactive: -9.85% |
| COc1cc(/C=N/NC(=O)CSc2cc(C)c(Br)cc2C)ccc1O | inconclusive [inhibitor, partial curve, poor fit] |  |
| CCCCC(=O)Nc1nc2ccc(C(=O)OC)cc2s1 | inconclusive [inhibitor, partial curve] |  |
| CCC(C)Sc1nc(C)nc2c1c(=O)n(C)c(=O)n2C (configuration not stated) | inconclusive [inhibitor, single point] |  |
| Cc1ccc(S(=O)(=O)N2CCOCC2)cc1C(=O)N1c2ccccc2Sc2ccccc21 | active: 23.1 µM |  |
| O=C(Cn1cnc([N+](=O)[O-])n1)N/N=C/c1cccc(Cl)c1 |  | inactive: 0.39% |
| Cc1noc(/C=C/c2ccco2)c1S(=O)(=O)N1CCC(C(=O)N(C)Cc2ccccc2)CC1 |  | inactive: -24.7% |
| CCCn1c(=O)c(C(=O)Nc2ccccc2)c(O)c2ccccc21 | inconclusive [inhibitor, single point] |  |
| CNc1c(Br)cc(/C=C2\C=Cc3ccccc32)cc1Br | inconclusive [inhibitor, partial curve] |  |
| COC(=O)C(C)N(C(=O)c1ccc(Cl)cc1)c1c(C)cccc1C (configuration not stated) | inconclusive [inhibitor, single point] |  |
| O=C(c1ccc2c(c1)N(Cc1ccc(F)cc1)C(=O)c1ccccc1S2(=O)=O)N1CCCCC1 | inconclusive [inhibitor, single point] |  |
| CCOC(=O)N1CCN(C(=O)CCCCn2c(=S)[nH]c3ccsc3c2=O)CC1 | inconclusive [inhibitor, full curve, poor fit] |  |
| Cc1ccc2cccc(NC(=S)NC(=O)c3ccn(C)n3)c2n1 | inconclusive [inhibitor, single point] |  |
| COc1cc(NC(=O)CSc2c3c(nc4ccccc24)CCC3)cc(OC)c1OC | inconclusive [inhibitor, single point] |  |
| Cc1c(C(=O)NCc2cccnc2)sc2nc(-c3ccc(F)cc3)cn12 | active: 13 µM |  |
| CCN(CC)c1nc2cc(OC)ccc2cc1C#N | active: 16.4 µM |  |
| Cc1nc(Cc2nnc(SC(C)C(=O)N3c4ccccc4NC(=O)C3(C)C)o2)cs1 (configuration not stated) | inconclusive [inhibitor, single point] |  |
| CCOc1ccc(S(=O)(=O)N2CCN(C(=O)Cc3ccc(S(=O)(=O)N4CCOCC4)s3)CC2)cc1 | active: 23.1 µM |  |
| CCCC(C(=O)NC(C)(C)C)N(C(=O)c1snc(C(N)=O)c1N)c1ccc2c(c1)OCCO2 (configuration not stated) | inconclusive [inhibitor, full curve] |  |
